PubChem BioAssay (NCI)
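The compound was tested at five concentrations on cells cultured in 96-well plates, with a 48-hour exposure period. Abbreviation: GI50, concentration required for 50% inhibition of growth. TGI denotes the concentration required for complete inhibition of growth.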

Tested on: NCI-H322M lung
Test: growth of human tumour cells (NCI), 48 h

CC1(C)[C@@H](O[C@@H]2OC[C@@H](O[C@@H]3O[C@H](CO)[C@@H](O)[C@H](O)[C@H]3O[C@@H]3OC[C@@H](O)[C@H](O)[C@H]3O)[C@H](O)[C@H]2O[C@@H]2O[C@H](CO)[C@@H](O)[C@H](O)[C@H]2O)CC[C@]2(C)[C@H]3CC[C@]45OC[C@@]6(CC[C@](C)(C=O)C[C@H]64)[C@H](O)C[C@@]5(C)[C@]3(C)CC[C@@H]12
GI50: 0.806 µM
TGI: 1.54 µM

O=C1/C(=C/c2ccc(Cl)cc2)N=C(c2ccccc2)N1CCc1cccs1
GI50: 42.2 µM
TGI: > 100 µM

O=C(O)/C(=C/C=C/c1ccccc1)c1csc(-c2nc(/C(=C\C=C\c3ccccc3)C(=O)O)cs2)n1
TGI: > 100 µM

O=C(CCC(=O)C(C(=O)c1ccccc1)c1ccccc1)Nc1cccc(C(F)(F)F)c1 (stereo not given)
TGI: > 100 µM

CN1c2ccccc2C(C)(C)C12C=Cc1cc(O)ccc1O2 (stereo not given)
GI50: 3.21 µM
TGI: 13 µM

Cc1cc(C)c2c(n1)S(=O)(=O)N(CCCN1CCN(c3cccc(C(F)(F)F)c3)CC1)c1c-2nn(C)c1C
TGI: > 100 µM

CCCCCCCCCCCCOP(=O)(O)OCC(N)C(=O)O (stereo not given)
TGI: 98.2 µM
